Measurements as given in ChEMBL document CHEMBL4888484, “Replenishing the malaria drug discovery pipeline: Screening and hit evaluation of the MMV Hit Generation Library 1 (HGL1) against asexual blood stage Plasmodium falciparum ,using a nano luciferase reporter read-out” (2022).
In all, about 150,000 compounds went through this assay and about 540 (0.36%) showed an effect of 50% or more. This is one part of the list.

These molecules were tested on Plasmodium falciparum (assay: Primary screen in NF54 nanoGlo assay, in single point, at 2uM, 72h; a lower Z score goes with more inhibition). Conditions: timepoint 72 hour.
Assay type: functional, Erythrocyte
For CCc1nnc(NC(=O)N2CCN(C(=O)Cc3ccccc3)CC2)s1, the “% Inhibition” value was -13% and the Z score was 1.3. In the case of O=C(C1CCCCC1)N1CCC[C@H](Oc2ccncn2)C1, the “% Inhibition” value is reported as -4% and the Z score is reported as 0.72. In the case of Cc1cccc(OCCO[C@@H]2CCCCO2)n1, the “% Inhibition” value is reported as -3% and the Z score is reported as 0.44. For COc1cc(C)c(S(=O)(=O)N2CCN=C2Cc2cccc3ccccc23)cc1C, the “% Inhibition” value was -5% and the Z score was 0.73. O=C(Nc1ccc(Oc2cccc3[nH]ccc23)nc1)c1ccsc1 was tested, and the “% Inhibition” value was -23% and the Z score was 3.32. For O=C(c1ccc2nsnc2c1)N1CCC(COCc2ccccc2)CC1, the “% Inhibition” value was -4% and the Z score was 0.54. With O=C(CCC1CCN(CCCC2CCCC2)CC1)NC[C@H]1CCCO1 the “% Inhibition” value was -1% and the Z score was 0.16. With Cc1ccc(CN2CC[C@@H](N3CCN(C(=O)c4cccs4)CC3)CCC2=O)cc1 the “% Inhibition” value was -10% and the Z score was 1.27. With Cc1cccc([C@H]2CCCN(C(=O)CN3CCCCCC3=O)C2)c1 the “% Inhibition” value was -6% and the Z score was 0.7. O=C1NCCCCCN(C(=O)Cc2ccccc2)[C@H]2CCC[C@@H]12 was tested, and the “% Inhibition” value was -1% and the Z score was 0.14. For CC(C)[C@H](O)C1(CNc2cccnc2C#N)CC1, the “% Inhibition” value was -6% and the Z score was 0.75. In the case of CCCS(=O)(=O)N1C[C@H](Nc2ncccn2)[C@@H](C(C)C)C1, the “% Inhibition” value is reported as -17% and the Z score is reported as 2.18. In the case of C[C@H]1CN(CCO)CCN1C(=O)Nc1ncc(C(C)(C)C)s1, the “% Inhibition” value is reported as -4% and the Z score is reported as 0.71. In the case of Cc1cc(COc2ccccc2)oc1C(=O)N1CCn2nc([C@H](C)O)cc2C1, the “% Inhibition” value is reported as -3% and the Z score is reported as 0.59. For COCCn1cc(CNc2ncnc3sccc23)cn1, the “% Inhibition” value was -9% and the Z score was 1.85. COc1ccnc(CNC(=O)c2cccc(CN3CCCCCC3)c2)c1 was tested, and the “% Inhibition” value was 0% and the Z score was 0.09. With FC(F)Oc1ccc([C@@H]2CN(CCc3ccncc3)CCO2)cc1 the “% Inhibition” value was -8% and the Z score was 1.24. With CC(C)(C)c1cc(C(=O)OCc2ccccc2C(N)=O)no1 the “% Inhibition” value was -9% and the Z score was 0.74. In the case of COc1ccc(NC(=O)C(C(=O)Nc2ccc(OC)cc2)C(=O)Nc2ccc(OC)cc2)cc1, the “% Inhibition” value is reported as 2% and the Z score is reported as -0.42. CC(C)c1scnc1C(=O)NCc1ccsc1 was tested, and the “% Inhibition” value was -3% and the Z score was 0.52. With Cc1cnc(C(=O)N2CCCN(c3ccc(F)c(F)c3)CC2)c(O)c1 the “% Inhibition” value was -7% and the Z score was 1.48. With N#Cc1ccncc1N1CCNC(=O)C1 the “% Inhibition” value was -6% and the Z score was 1.01. C#CCOC[C@@H](O)CN(CCCOC)Cc1cccc(C)c1 was tested, and the “% Inhibition” value was -14% and the Z score was 2.56. For COc1ccccc1/C=C/CN1CCC2(CC1)[C@H](O)C[C@@H]2O, the “% Inhibition” value was -8% and the Z score was 1.4. With Cc1ccc(C)c(C(=O)Cn2nc3ccc(-c4ccc(Cl)cc4)nn3c2=O)c1 the “% Inhibition” value was 33% and the Z score was -0.57. CC(C)c1cc(C(=O)N2CCCC(C)(C)[C@H]2C#N)on1 was tested, and the “% Inhibition” value was -14% and the Z score was 1.28. In the case of CCNC(=O)NC(=O)[C@H](C)N(C)Cc1ccoc1C, the “% Inhibition” value is reported as -13% and the Z score is reported as 1.28. With COCc1cccc(C(=O)N2CCC[C@H](c3nccs3)C2)c1 the “% Inhibition” value was 1% and the Z score was -0.15. C#CCN1Cc2cc(OC)c(OC)cc2C2(CCCC2)C1 was tested, and the “% Inhibition” value was -12% and the Z score was 2.27. For O=C(c1coc(Br)c1)N1CCC[C@H]1c1ncc[nH]1, the “% Inhibition” value was 2% and the Z score was -0.38. For Cc1ccc(C(=O)Nc2ccc(C)c(N3C(=O)CNC3=O)c2)cn1, the “% Inhibition” value was -6% and the Z score was 1.11. In the case of Cc1c(C(=O)N(C)C[C@H]2CCCN(C)C2)cnn1-c1nccc(-c2cccs2)n1, the “% Inhibition” value is reported as -4% and the Z score is reported as 0.83. With O=C(Nc1cccc2ccccc12)N1CCCN(C(=O)C(F)(F)F)CC1 the “% Inhibition” value was -6% and the Z score was 0.86. For CCOC(=O)N1CCC(Nc2nc(-c3cccnc3)nc3c2CCNC3)CC1, the “% Inhibition” value was -5% and the Z score was 0.8. In the case of O=C(N[C@@H]1C[C@H]2OCC[C@@H]12)c1c[nH]nc1-c1ccccc1, the “% Inhibition” value is reported as -7% and the Z score is reported as 0.87. With COc1ccccc1CNC(=O)C[C@@H]1[C@H](O)CCC2[C@](C)(CO)[C@H](OC(=O)NC3CCCCC3)CC[C@]21C (stereo not given in full) the “% Inhibition” value was 29% and the Z score was -3.27. CCc1nc(N)nc(N2CCN(Cc3ccncc3)CC2)c1C was tested, and the “% Inhibition” value was -20% and the Z score was 2.27. In the case of Cn1cccc1C(=O)N1CCN(Cc2cccnc2)[C@@H]2CS(=O)(=O)C[C@@H]21, the “% Inhibition” value is reported as -12% and the Z score is reported as 1.49. In the case of Cc1nc(C)c(C(=O)N[C@H]2CC=CC[C@@H]2C(N)=O)s1, the “% Inhibition” value is reported as -10% and the Z score is reported as 1.76. For COc1cccc(-c2ncc(CNC(=O)[C@@H]3NCCc4[nH]cnc43)s2)c1, the “% Inhibition” value was -9% and the Z score was 0.79. In the case of CCCc1nnc(C(=O)Nc2ccc(C(=O)NCCN3CCN(C)CC3)cc2)s1, the “% Inhibition” value is reported as -14% and the Z score is reported as 1.66. With COCCn1cc2c(n1)[C@@H](NC(=O)CNC(=O)c1ccccc1OC)CCC2 the “% Inhibition” value was 1% and the Z score was -0.07. In the case of CCC(=O)N(Cc1csc(COc2ccc(C)c(C)c2)n1)C1CC1, the “% Inhibition” value is reported as -11% and the Z score is reported as 1.04. For CCN(Cc1ccccc1Cl)C[C@H]1CCCN1, the “% Inhibition” value was 4% and the Z score was -0.63. With Cc1cc(C)nc(NC[C@H](C)c2nc(C)cs2)n1 the “% Inhibition” value was -5% and the Z score was 0.64. Cc1cc(F)ccc1S(=O)(=O)N1CCC[C@H]1c1nccn1C was tested, and the “% Inhibition” value was -7% and the Z score was 0.84. CN(CCN1CCCCC1=O)Cc1nccs1 was tested, and the “% Inhibition” value was -4% and the Z score was 0.72. In the case of O=C(O)[C@H]1CCCN1Cc1ccc(OCc2ccc(F)cc2)cc1, the “% Inhibition” value is reported as -17% and the Z score is reported as 2.32. N#Cc1ccc(C(=O)Nc2c(F)cccc2NC2CC2)nc1 was tested, and the “% Inhibition” value was -16% and the Z score was 2.96. In the case of COc1cccc(CNC(=O)CCC(=O)N2Cc3cccn3-c3ccccc32)c1OC, the “% Inhibition” value is reported as -6% and the Z score is reported as 0.64. For CCC[C@@H](CNc1nc(C)nc(C)c1C)N(C)C, the “% Inhibition” value was -7% and the Z score was 1.26. For CN(C1CCCCC1)S(=O)(=O)c1cccc2c1OCCO2, the “% Inhibition” value was -8% and the Z score was 0.84. With Cc1cc(C(=O)NCCc2nc3c(C)cccc3o2)on1 the “% Inhibition” value was -9% and the Z score was 1.77. With CCN1CCN(C(=O)CC2CC3CCC2C3)CC1 (stereo not given) the “% Inhibition” value was -1% and the Z score was 0.18. Cc1ccccc1Cn1nc2c(S(=O)(=O)N3CCc4ccccc4C3)cccn2c1=O was tested, and the “% Inhibition” value was 5% and the Z score was -0.75. For CCn1cc(CN2CCN(c3nccn(C)c3=O)CC2)c(C)n1, the “% Inhibition” value was -10% and the Z score was 1.08. In the case of COC(=O)Cn1c(=O)n(Cc2nc(-c3ccccc3)no2)c(=O)c2ccccc21, the “% Inhibition” value is reported as 2% and the Z score is reported as -0.42. With Cc1ccc(S(=O)(=O)C2CCCCC2NC[C@@H](C)O)cc1 (stereo not given in full) the “% Inhibition” value was -4% and the Z score was 0.57. In the case of C[C@@H](C(=O)Nc1c(F)cccc1F)N1CCC(NS(=O)(=O)c2cccs2)CC1, the “% Inhibition” value is reported as -7% and the Z score is reported as 0.81. Cc1nc[nH]c1CN1C[C@H]2CC[C@@H](C1)N(Cc1ccc(-n3ccnc3)cc1)C2 was tested, and the “% Inhibition” value was 10% and the Z score was -0.98. With CN(Cc1ccccc1)CN1C(=O)C2(OCC(C)(c3ccccc3)CO2)c2ccccc21 (stereo not given) the “% Inhibition” value was -10% and the Z score was 1.27. O=C(NC1Cc2ccccc2C1)c1cccc(S(=O)(=O)N[C@H]2CCOC2)c1 was tested, and the “% Inhibition” value was -12% and the Z score was 1.66. In the case of COc1ccc(NC(C)=O)cc1NC(=O)N1CC[C@H](Oc2cccc(Cl)c2)C1, the “% Inhibition” value is reported as 31% and the Z score is reported as -3.48. For O=C(NCC1CCc2ccccc2CC1)N[C@H]1C[C@H]1C(F)F, the “% Inhibition” value was -10% and the Z score was 1.64. O=C(c1ccc(Br)o1)N1CC[C@H](OCc2cccnc2)C1 was tested, and the “% Inhibition” value was -2% and the Z score was 0.21. With CC(=Cc1cccc(C=C(C)c2cnccn2)c1)c1cnccn1 the “% Inhibition” value was 2% and the Z score was -0.42. In the case of Cc1ccc2oc(-c3noc(-c4ccccc4)n3)c(C)c2c1, the “% Inhibition” value is reported as -7% and the Z score is reported as 0.85. For Cc1csc(CNC(=O)c2coc(COc3cccc(C(F)(F)F)c3)n2)n1, the “% Inhibition” value was 1% and the Z score was -0.07. With CCCn1cc(S(=O)(=O)N[C@@H](CC)Cn2ccnc2)cn1 the “% Inhibition” value was -3% and the Z score was 0.6. With COCCn1c(=O)n([C@H]2CCCN(C(=O)CCc3ccc(OC)cc3)C2)c2ncccc21 the “% Inhibition” value was -14% and the Z score was 1.9. For Cc1cn2nc(NC3CCCC3)sc2n1, the “% Inhibition” value was 4% and the Z score was -0.71. In the case of CCOC1CC(CO)(NCc2nn(C)cc2C)C1(C)C (stereo not given), the “% Inhibition” value is reported as 31% and the Z score is reported as -3.91. In the case of CN(Cc1ncc(Br)cn1)c1cc(C2CC2)ncn1, the “% Inhibition” value is reported as 2% and the Z score is reported as -0.39. With CN(C(=O)CCc1nnc(C2CCCC2)o1)c1ccn(C)n1 the “% Inhibition” value was 9% and the Z score was -1.34. For Cc1oc(-c2cnn(C)c2)nc1C(=O)N(CC(F)F)c1ccc(F)cc1, the “% Inhibition” value was 0% and the Z score was -0.04. O=C(CN1CCCCC1C1CCCCC1O)NC(=O)NC1CCCCC1 (stereo not given) was tested, and the “% Inhibition” value was 5% and the Z score was -0.8. O=C(N[C@H]1CCN(Cc2ccccn2)C[C@@H]1O)C1CCOCC1 was tested, and the “% Inhibition” value was 2% and the Z score was -0.31. In the case of Cc1c(Cl)ccc2c1NC(=O)[C@]21N[C@@H](Cc2ccccc2)[C@H]2C(=O)N(Cc3ccccc3)C(=O)[C@H]21, the “% Inhibition” value is reported as 10% and the Z score is reported as -1.29. Cc1ccccc1N1CCN(C(=O)c2ccc3c(c2)OCCO3)CC1 was tested, and the “% Inhibition” value was 4% and the Z score was -0.48. For Cc1cccc(C(=O)NC(C)C(C)C(=O)O)c1Cl (stereo not given), the “% Inhibition” value was 3% and the Z score was -0.51. In the case of O=C(Nc1nccs1)c1ccc2c(c1)C(=O)N(CCc1ccccc1)C2=O, the “% Inhibition” value is reported as 5% and the Z score is reported as -0.88. With CN1CCN(C(=O)N2CCCC[C@@H]2CCc2cccc(O)c2)CC1 the “% Inhibition” value was -11% and the Z score was 1.85. Cc1cccc(C)c1OCC(=O)N(C)C1(C#N)CCC1 was tested, and the “% Inhibition” value was -13% and the Z score was 1.69. With CN(C[C@H]1COc2ccccc2O1)C(=O)c1ccc2ncccc2c1 the “% Inhibition” value was 9% and the Z score was -1.68. With O=S(=O)(c1ccccc1)[C@H]1CCN(S(=O)(=O)C2CC2)C1 the “% Inhibition” value was -10% and the Z score was 1.79.
